{
  "source": "the supplement of paper PMC12217912",
  "parents": {"B1": {"name": "TEV protease; numbered along this chain (parent)", "chain": "MGESLFKGPRDYNPISSSICHLTNESDGHTTSLYGIGFGPFIITNKHLFRRNNGTLVVQSLHGVFKVKDTTTLQQHLVDGRDMIIIRMPKDFPPFPQKLKFREPQREERICLVTTNFQTKSMSSMVSDTSCTFPSGDGIFWKHWIQTKDGQCGSPLVSTRDGFIVGIHSASNFTNTNNYFTSVPKNFMELLTNQEAQQWVSGWRLNADSVLWGGHKVFMVKPEEPFQPVKEATQL"}},
  "note": "Some of the results follow. The full chains were built here from the parent and the listed change. Values near 0.05 are background.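 Note: Bxb1 expression induced with 0.2% (w/v) L-rhamnose at OD600 near 0.5, cultures sampled hourly, flipped fraction per protease–substrate barcode pair counted by paired-end Illumina sequencing.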",
  "data": [
    {"variants_of": "B1", "experiment": "raw area under fraction-flipped curve 0-4 h after induction (AUC4h, not background-subtracted), DNA-recorder readout of cleavage of the substrate (dimensionless); higher = more cleavage of the substrate by the protease variant", "details": "temperature: 34 °C; time window: 0-4 h after rhamnose induction", "values": [
      {"variant": "MGESLFKGPRDYNPISSSICHLTNESDGHTTSLYGIGFGPFIITNKHLFRRNNGTLVVQSLHGVFKVKDTTTLQQHLVDGRDMIIIRMPKDFPPFPQKLKFREPQREERICLVTTNFQTKSMSSMVSDTSCTFPSGDGIFWKHWIQTKDGQCGSPLVSTRDGFIVGIHSASNFTNTNNYFTSVPKNFMELLTNEEAQQWVSGWRLNADSVLWGGHKVFMVKPEEPFQPVKEATQL", "note": "[Q194E]", "area with substrate EFLYFQS": 0.0793, "area with substrate ELLYFQS": 0.121, "area with substrate ERLYFQS": 0.0744, "area with substrate ESLYFQS": 0.108, "area with substrate ETLYFQS": 0.122, "area with substrate EVLYFQS": 0.102},
      {"variant": "MGESLFKGPRDYNPISSSICHLTNESDGHTTSLYGIGFGPFIITNKHLFRRNNGTLVVQSLHGVFKVKDTTTLQQHLVDGRDMIIIRMPKDFPPFPQKLKFREPQREERICLVTTKFQTKSMSSMVSDTSCTFPSGDGIFWKHWIQTKDGQCGSPLVSTRDGFIVGIHSASNFTNTNNYFTSVPKNFMELLTNQEAQQWVSGWRLNADSVLWGGHKVFMVKPEEPFQPVKEATQL", "note": "[N116K]", "area with substrate EGLYFQS": 0.0931, "area with substrate EHLYFQS": 0.119, "area with substrate EILYFQS": 0.106, "area with substrate ERLYFQS": 0.128, "area with substrate EWLYFQS": 0.0844},
      {"variant": "MGESLFKGPRDYNPISSSICHLTNESDGHTTSLYGIGFGPFIITNKHLFRRNNGTLVVQSLHGVFKVKDTTTLQQHLVDGRDMIIIRMPKDFPPFPQKLKFREPQREERICLVTTNFQTKSMSSMVSDTSCTFPSGDGIFWKHWIQTKDGQCGSPLVSTRDGFIVGIHSASNFTNTNNYPTSVPKNFMELLTNQEAQQWVSGWRLNADSVLWGGHKVFMVKPEEPFQPVKEATQL", "note": "[F180P]", "area with substrate EILYFQS": 0.0363, "area with substrate EMLYFQS": 0.0619, "area with substrate EPLYFQS": 0.0505, "area with substrate ESLYFQS": 0.0528, "area with substrate EVLYFQS": 0.0573, "area with substrate EYLYFQS": 0.0445},
      {"variant": "MGESLFKGPRDYNPISSSICHLTNESDGHTTSLYPIGFGPFIITNKHLFRRNNGTLVVQSLHGVFKVKDTTTLQQHLVDGRDMIIIRMPKDFPPFPQKLKFREPQREERICLVTTNFQTKSMSSMVSDTSCTFPSGDGIFWKHWIQTKDGQCGSPLVSTRDGFIVGIHSASNFTNTNNYFTSVPKNFMELLTNQEAQQWVSGWRLNADSVLWGGHKVFMVKPEEPFQPVKEATQL", "note": "[G35P]", "area with substrate EKLYFQS": 0.0281, "area with substrate EVLYFQS": 0.0313}
    ]}
  ]
}
